Experimental data published in PubChem BioAssay (NCATS).
Values joined by “and” are separate entries in the source; they are usually repeats but may differ in a detail not shown here. Equal entries are not always repeated. Inconclusive means that the source gave no clear call. Such entries were picked first, then a sample of the others. Potencies of inconclusive entries are doubtful fits and often do not repeat. Active and inactive are the calls of the source. Unless noted, calls follow the shape of the dose curve; as a rule, active = well fitted curve in the direction sought with a large enough effect; inconclusive = small, poorly fitted or top-dose-only effect, or another doubt; inactive = no such curve, though single readings can be large; an effect the other way counts as inactive or inconclusive.

Key:
[1] = molecular target: Aldehyde dehydrogenase, mitochondrial (Homo sapiens) (UniProt P05091); assay: qHTS for Inhibitors of the Aldehyde Dehydrogenase Family (ALDH2) Confirmatory screens (AID 2061303; active = well fitted inhibition curve with a large enough effect; inconclusive = small, poorly fitted or top-dose-only effect; inactive = no such curve, though single readings can be large or run the other way; title and protocol of this record describe different tests; also: nearly all actives have a fitted effect of over 45% in size); details: ALDH inhibition qHTS; activity change, negative = inhibition: at 45.4 µM (top of the series)
[2] = qHTS for Inhibitors of the Aldehyde Dehydrogenase Family (ALDH1A2, ALDH1A3, ALDH2, ALDH3A1) (AID 2061307); details: ALDH inhibition qHTS; activity change, negative = inhibition: at 50.3 µM (top of the series) unless noted; also: test system not described further here; nearly all actives have a fitted effect of over 50% in size
[3] = molecular target: Aldehyde dehydrogenase, mitochondrial (Homo sapiens) (UniProt P05091); assay: qHTS for Inhibitors of the Aldehyde Dehydrogenase Family (ALDH2) Primary screen (AID 2061308); also: nearly all actives have a fitted effect of over 55% in size
[4] = molecular target: Retinaldehyde dehydrogenase 3 (Homo sapiens) (UniProt P47895); assay: qHTS for Inhibitors of the Aldehyde Dehydrogenase Family (ALDH1A3) Confirmatory screens (AID 2061311); details: activity change, negative = inhibition: at 46 µM (top of the series); also: nearly all actives have a fitted effect of over 60% in size
[5] = molecular target: Retinal dehydrogenase 2 (Homo sapiens) (UniProt O94788); assay: qHTS for Inhibitors of the Aldehyde Dehydrogenase Family (ALDH1A2) Confirmation screens (AID 2061314); details: activity, negative = inhibition: at 45.9 µM (top of the series) unless noted; also: nearly all actives have a fitted effect of over 65% in size
[6] = molecular target: Retinaldehyde dehydrogenase 3 (Homo sapiens) (UniProt P47895); assay: qHTS for Inhibitors of the Aldehyde Dehydrogenase Family (ALDH1A3) Validation screen (AID 2061312); details: ALDH1A3 enzyme inhibition qHTS validation, fluorescence; activity change, negative = inhibition: at 84.7 µM (top of the series); also: nearly all actives have a fitted effect of over 45% in size
[7] = molecular target: Retinaldehyde dehydrogenase 3 (Homo sapiens) (UniProt P47895); assay: qHTS for Inhibitors of the Aldehyde Dehydrogenase Family (ALDH1A3) Primary screen (AID 2061315); details: ALDH inhibition qHTS; activity change, negative = inhibition: at 56 µM (top of the series) unless noted
Potency is read from the fitted curve at half-maximal effect; tags tell the direction and shape of the fitted curve.

CC(C)(C)OC(=O)N1CCN(c2ccc(NCc3ccc(-c4ccc(C#N)cc4)s3)cc2)CC1
Potency [1]: active: 0.179 µM | Potency [2]: inconclusive: 1.79 µM [inhibitor, partial curve] | Potency [3]: inconclusive: 0.178 µM [inhibitor, full curve, poor fit] | Potency [4]: inconclusive: 12.7 µM [inhibitor, partial curve]

Cc1cc(C)nc(NC(=S)N2CCN(c3ccc(F)c(Cl)c3)CC2)c1
Potency [1]: inconclusive: 8.91 µM [inhibitor, full curve, poor fit] | Potency [2]: active: 7.08 µM | Potency [3]: inconclusive: 0.501 µM [inhibitor, full curve, poor fit] | Potency [4]: inconclusive: 12.7 µM [inhibitor, partial curve] | Potency [5]: inconclusive: 15.9 µM [inhibitor, partial curve]

CC(C)(C)OC(=O)N1CCN(c2ccc(NCc3cncc(-c4ccc(C#N)cc4)c3)cc2)CC1
Potency [1]: active: 1.79 µM | Potency [2]: active: 0.634 µM | Potency [3]: inconclusive: 2.51 µM [inhibitor, full curve, poor fit] | Potency [4]: inactive | Potency [5]: inactive

OCc1ccc(-c2ccc3ncnc(N4CCOCC4)c3c2)o1
Potency [1]: active: 11.3 µM | Potency [2]: active: 1 µM | Potency [3]: inconclusive: 12.6 µM [inhibitor, partial curve, poor fit] | Potency [4]: inconclusive: 22.4 µM [inhibitor, full curve] | Potency [5]: inconclusive: 5.04 µM [inhibitor, full curve]

COc1ccc(C2=Nn3c(nnc3-c3ccccc3OC)SC2)c(OC)c1
Potency [1]: inactive | Potency [2]: inconclusive: 20.1 µM [inhibitor, partial curve] | Potency [3]: inconclusive: 0.158 µM [inhibitor, full curve, poor fit] | Potency [4]: inactive | Potency [5]: inconclusive: 25.2 µM [inhibitor, partial curve, poor fit]

CO/N=C(/C(=O)N[C@@H]1C(=O)N2C(C(=O)O)=C(CSC(=O)c3ccco3)CS[C@H]12)c1csc(N)n1
Potency [1]: inconclusive: 11.3 µM [inhibitor, partial curve] | Potency [2]: inconclusive: 0.1 µM [inhibitor, full curve, poor fit] | Potency [3]: active: 17.8 µM and inconclusive: 28.2 µM [inhibitor, single point] | Potency [4]: active: 7.12 µM | Potency [6]: inconclusive: 5.62 µM [inhibitor, full curve, poor fit] | Potency [5]: active: 28.3 µM | Potency [7]: inconclusive: 22.4 µM [inhibitor, partial curve]

O=C1c2ccccc2NC(c2ccc(-c3cccc(Cl)c3)o2)N1O (stereo not given)
Potency [1]: inconclusive: 10.1 µM [inhibitor, partial curve] | Potency [2]: inconclusive: 15.9 µM [inhibitor, partial curve] | Potency [3]: inconclusive: 31.6 µM [inhibitor, partial curve, poor fit] | Potency [4]: inconclusive: 22.5 µM [inhibitor, partial curve] | Potency [5]: inconclusive: 15.9 µM [inhibitor, partial curve]

Cc1ccc([S+](=O)([O-])Nc2nn3c(=O)c4ccccc4nc3s2)cc1C
Potency [1]: inconclusive: 20.1 µM [inhibitor, partial curve] | Potency [2]: inconclusive: 20.1 µM [inhibitor, partial curve] | Potency [3]: inconclusive: 7.08 µM [inhibitor, partial curve] | Potency [4]: inconclusive: 22.5 µM [inhibitor, partial curve] | Potency [5]: inconclusive: 20.1 µM [inhibitor, single point]

CCc1ccc(-c2nn3c(C)nnc3s2)cc1NC(=O)c1ccc(-c2cccc(Cl)c2)o1
Potency [1]: inconclusive: 8.91 µM [inhibitor, full curve, poor fit] | Potency [2]: active: 25.1 µM | Potency [3]: inconclusive: 12.6 µM [inhibitor, partial curve, poor fit] | Potency [4]: inconclusive: 8.91 µM [inhibitor, full curve]

Cc1cc(NC(=O)Nc2nnc(-c3ccncc3)s2)ccc1Br
Potency [1]: inconclusive: 25.2 µM [inhibitor, partial curve] | Potency [2]: active: 11.3 µM | Potency [3]: inconclusive: 15.8 µM [inhibitor, partial curve] | Potency [4]: inactive | Potency [5]: inconclusive: 22.5 µM [inhibitor, partial curve]
